# According to the supplement of paper PMC3334620:
# In all, about 33,000 sequences were measured (“E-score (-0.5 to 0.5)”: median about -0.011, highest 2% from about 0.28 on). This is one part of the list.
# Target: T1, Gcr1 (UniProt P07261)
# T1 sequence: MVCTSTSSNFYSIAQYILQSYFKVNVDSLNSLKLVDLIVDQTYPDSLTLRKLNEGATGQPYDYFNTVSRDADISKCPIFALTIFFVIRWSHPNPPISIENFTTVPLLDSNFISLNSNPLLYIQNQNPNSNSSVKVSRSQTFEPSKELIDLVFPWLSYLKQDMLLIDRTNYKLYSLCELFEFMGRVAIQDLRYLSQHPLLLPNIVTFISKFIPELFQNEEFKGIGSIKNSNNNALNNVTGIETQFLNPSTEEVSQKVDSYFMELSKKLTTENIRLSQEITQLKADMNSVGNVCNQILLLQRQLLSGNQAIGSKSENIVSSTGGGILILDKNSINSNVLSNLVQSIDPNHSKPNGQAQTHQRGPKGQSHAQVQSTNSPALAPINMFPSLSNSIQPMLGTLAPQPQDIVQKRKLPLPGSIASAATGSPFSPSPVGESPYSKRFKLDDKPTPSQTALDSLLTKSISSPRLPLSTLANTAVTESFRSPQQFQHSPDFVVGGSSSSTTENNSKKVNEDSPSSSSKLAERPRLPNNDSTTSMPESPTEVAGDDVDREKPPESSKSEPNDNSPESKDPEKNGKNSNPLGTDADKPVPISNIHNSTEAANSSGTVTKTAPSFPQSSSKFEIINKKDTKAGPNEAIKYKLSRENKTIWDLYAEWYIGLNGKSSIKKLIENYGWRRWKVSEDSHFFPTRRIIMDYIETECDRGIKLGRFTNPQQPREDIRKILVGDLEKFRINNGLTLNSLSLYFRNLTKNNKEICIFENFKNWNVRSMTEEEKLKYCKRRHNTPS
# Experiment: PBM E-score (8-mer binding enrichment) (E-score (-0.5 to 0.5)); higher = stronger / more preferred TF binding; most listed sequences are background and not binding sites
# Settings: protein concentration: 100 nM; construct: GST-full length
# Method: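 Universal 'all 10-mer' protein binding microarrays (Agilent AMADID 015681) probed with GST-tagged S. cerevisiae TFs (full-length or DBD) made by in vitro transcription/translation (PURExpress), about 100-200 nM. Bound TF was detected with fluorescent anti-GST. Each ungapped 8-mer (which stands for itself and its reverse complement) is scored by the PBM enrichment score (E-score), a modified Wilcoxon-Mann-Whitney statistic from -0.5 to +0.5, computed with the Universal PBM Analysis Suite. Scale: above 0.35 generally sequence-specific binding.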
row,Sequence,PBM E-score
1,AGGTTGCC,0.28
2,AGGCACCT,0.16
3,CTCCGTCA,-0.278
4,AGTGGGTC,0.222
5,AGCGCAAG,-0.0482
6,GTAAATGA,-0.0267
7,AAAGCTCG,-0.137
8,GGTCTACA,-0.0646
9,ATCGGTCG,-0.0293
10,ACTAATAT,0.149
11,AACGCAAC,0.00489
12,GATGTAGA,0.087
13,ATTCGGAC,-0.0393
14,GGCACCAA,0.335
15,GGTCACTA,-0.126
16,GTTGGTGA,-0.0415
17,ATTTGAGG,0.0294
18,CATATGGC,0.00958
19,ACATGAAA,-0.18
20,CAGATGGC,-0.0396
21,CGGGACAA,-0.118
22,AATTACAT,0.0891
23,GGCTCCGA,0.136
24,TGCGACCA,0.166
25,AAATGTGC,0.00773

row,Sequence,PBM E-score
1,AATTCAGT,0.241
2,AATACGCT,0.0181
3,AAGAACCA,0.13
4,CAGGGAAC,0.00984
5,AGCCAAAG,-0.152
6,AATTAAGG,0.118
7,CATTCGAG,-0.284
8,TCTCGGAA,0.0498
9,CGTGCAGA,-0.00419
10,CCGTGTGA,-0.063
11,CAACTTGA,0.0873
12,ATGGGGGA,-0.186
13,AAAGAAGT,0.0878
14,ACTGAGCA,0.131
15,AGATGGAC,0.224
16,GTCGATAA,-0.00243
17,ATTCGGTA,0.0533
18,ACGCACGG,0.00066
19,CAGGTGCC,0.25
20,GACTCATC,-0.124
21,ACAGGAAG,0.455
22,GAAGAACA,-0.136
23,AAACCTAA,0.0813
24,ACACAGCT,-0.243
25,TAGGTGCA,-0.174

row,Sequence,PBM E-score
1,CCAACAAA,-0.0204
2,GAAGATTA,-0.0115
3,AACGAATT,0.0678
4,TCATCACA,-0.0733
5,CCAGAGAC,-0.0679
6,AGTTGACC,-0.106
7,GATTTCTA,-0.00526
8,CGACGGTA,-0.073
9,CATTGCAG,-0.153
10,GTCAAGGA,0.0238
11,ATAGCTAG,-0.0392
12,CGAGAGGA,-0.113
13,GCTAACCC,-0.243
14,CCCAGCAA,0.174
15,CGCAACCA,0.147
16,CAACGCTA,0.0062
17,CTTTGGGC,0.00906
18,AATGCGCT,0.195
19,ACGAATGG,0.111
20,CGCGGCCG,-0.197
21,GTGCTTCA,-0.102
22,ACAGTTCC,0.0983
23,AGTATAGA,-0.123
24,AATGTACG,-0.105
25,CCTTCTAC,0.0671

row,Sequence,PBM E-score
1,AAGACAAT,-0.0611
2,CGGCGGAC,-0.0471
3,CGCCAGCC,-0.117
4,ACACTGGC,0.16
5,GGGAAGCA,0.0216
6,CTTCTTGC,0.0175
7,ACGCCCCA,0.0841
8,TACAGAGA,-0.0176
9,CGTTCCAG,-0.008
10,ACAATAAG,0.117
11,CAAAAAAC,0.191
12,GACAAACC,-0.0625
13,ATCTCGGC,-0.0184
14,GCCCATTA,0.00809
15,AATGCCCA,-0.0413
16,ACTTGGGG,0.0493
17,GCAACTGC,0.0273
18,CCAGAGAA,0.128
19,AGCCGGTC,0.0351
20,CCTCTCCA,-0.11
21,CAGAATGC,0.0822
22,TCACACCA,-0.135
23,GACGACTA,-0.195
24,ACACTATC,-0.0774
25,GCTGTTTA,0.0955

row,Sequence,PBM E-score
1,AAATTCCG,0.108
2,TGCCGGAA,0.145
3,GATCCACA,0.18
4,TAAACTAA,0.0517
5,CGAAGAAA,-0.0515
6,AGTGATCC,-0.0127
7,AAATGTAC,-0.0111
8,ACGAGTCA,-0.18
9,CATAATTC,0.0959
10,ACGGGTGA,-0.212
11,CGTCTTCA,0.143
12,GCCCACGC,-0.252
13,CCGAAACG,0.012
14,CCAAGAGC,0.0143
15,ATAGGCTC,0.0169
16,GTCTTAAC,-0.00039
17,CAATTTAC,0.0643
18,CCCCAGTA,0.0644
19,CCGGGAGA,0.0477
20,CCGAGCAA,-0.208
21,CAGATAGA,0.0277
22,CCGCACCA,0.0661
23,CCGTGGTC,-0.067
24,CGAGAACA,-0.0497
25,GATATGCC,-0.171

row,Sequence,PBM E-score
1,CGTAGTGC,-0.154
2,ACTAGATG,0.173
3,CGGTGTCA,-0.102
4,CTTATAAG,-0.0238
5,GAATGAAA,0.167
6,TATAAGAA,0.261
7,CGGGTGAG,-0.163
8,ATGCTCTA,-0.0783
9,AATTTGTC,-0.00767
10,CTTTTCGC,0.0761
11,TCAAAACA,0.0365
12,TCCGACAA,-0.0648
13,CCTGCCAC,0.0404
14,ATCCGCAA,0.12
15,AACGTAGA,-0.106
16,CTCTTGCC,-0.053
17,AGCTAAGC,-0.17
18,CAACTCCG,0.0619
19,CTCCGACC,-0.127
20,AACGGGTG,0.0615
21,ACCCGCTG,-0.068
22,CCCCGGCG,-0.0578
23,AACACTCC,-0.0243
24,AAAGCTCC,-0.0149
25,GCTTAATA,0.101

row,Sequence,PBM E-score
1,ATGCCGTC,-0.126
2,ATATTTCG,0.216
3,AAGTATGC,-0.0568
4,GCTTACCC,-0.205
5,AAACGGGC,0.00768
6,TCACTCAA,-0.119
7,GATGTAAC,-0.0496
8,GATGGGAC,-0.113
9,ATTCGTTG,0.039
10,CATTCGAA,-0.00054
11,ATGGTCTG,-0.104
12,GTGTAGCA,-0.141
13,ACCCAAAG,0.0084
14,GGAAGGCC,0.0184
15,GTGCAAAC,-0.129
16,CATATGCA,-0.0913
17,CCTGCTTC,-0.023
18,CCTGTCCG,-0.189
19,CGGGAGCC,0.337
20,CCAGAAAG,0.124
21,CACCCGGG,0.0663
22,ACATATTG,0.0382
